Out of some 310,000 compounds screened, about 2,200 (0.71%) showed an effect of 50% or more. The effect is printed as a negative number. This is one part of the list.

From article PMC4336329 (PLoS ONE, 2015) come the findings set out here.

The target of this experiment is human ether-à-go-go-related gene (hERG) potassium channel (human, UniProt Q12809). Kind of experiment: primary screen, population patch clamp on CHO cells stably expressing hERG.
Chain of human ether-à-go-go-related gene (hERG) potassium channel (Q12809 whole entry, looked up): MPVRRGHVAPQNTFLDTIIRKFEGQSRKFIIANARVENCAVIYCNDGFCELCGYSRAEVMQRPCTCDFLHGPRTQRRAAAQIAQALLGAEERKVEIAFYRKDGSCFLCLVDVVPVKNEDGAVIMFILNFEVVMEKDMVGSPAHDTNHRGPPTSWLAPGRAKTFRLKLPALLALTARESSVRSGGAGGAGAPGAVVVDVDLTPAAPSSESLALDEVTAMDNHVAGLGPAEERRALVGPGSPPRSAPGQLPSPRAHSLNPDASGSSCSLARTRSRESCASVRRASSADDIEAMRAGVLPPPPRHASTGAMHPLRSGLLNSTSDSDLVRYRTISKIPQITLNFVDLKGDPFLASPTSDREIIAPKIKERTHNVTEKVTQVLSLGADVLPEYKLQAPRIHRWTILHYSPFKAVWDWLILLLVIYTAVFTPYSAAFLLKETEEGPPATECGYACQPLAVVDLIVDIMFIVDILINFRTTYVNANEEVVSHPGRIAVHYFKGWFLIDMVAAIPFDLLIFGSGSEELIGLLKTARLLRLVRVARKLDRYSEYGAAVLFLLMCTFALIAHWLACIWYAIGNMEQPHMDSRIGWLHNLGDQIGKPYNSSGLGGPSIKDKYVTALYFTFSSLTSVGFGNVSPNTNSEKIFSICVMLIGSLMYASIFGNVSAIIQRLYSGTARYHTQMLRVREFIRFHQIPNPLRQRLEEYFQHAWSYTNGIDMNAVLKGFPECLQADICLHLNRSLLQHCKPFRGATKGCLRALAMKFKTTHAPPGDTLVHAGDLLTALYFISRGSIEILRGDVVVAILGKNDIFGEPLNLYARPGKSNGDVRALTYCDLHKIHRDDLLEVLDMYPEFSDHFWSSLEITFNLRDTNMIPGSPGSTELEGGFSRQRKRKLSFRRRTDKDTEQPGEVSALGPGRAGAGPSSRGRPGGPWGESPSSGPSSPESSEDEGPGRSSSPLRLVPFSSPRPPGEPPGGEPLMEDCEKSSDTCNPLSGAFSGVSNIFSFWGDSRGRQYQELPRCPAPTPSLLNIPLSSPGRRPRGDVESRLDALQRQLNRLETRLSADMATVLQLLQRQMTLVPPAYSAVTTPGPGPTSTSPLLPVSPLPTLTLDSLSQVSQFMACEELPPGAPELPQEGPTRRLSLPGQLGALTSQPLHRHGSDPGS
Turning to `Cn1c(SCC(=O)N2CCCC2)nnc1-c1ccc2c(c1)OCO2`, the “hERG current change (%, negative = inhibition) at 1uM” value worked out at 15.3%.
To `Cc1ccc(S(=O)(=O)N(C)C)cc1NC(=O)COC(=O)c1ccc2c(c1)OCCO2` belongs 18.6%.
Consider `CCCn1c(=O)c(C(=O)NCc2cccnc2)c(O)c2ccccc21`, for which the “hERG current change (%, negative = inhibition) at 1uM” value was determined as 8.83%.
Consider `CCCCS(=O)(=O)N1CCN(C(=N)N[N+](=O)[O-])CC1`, for which the “hERG current change (%, negative = inhibition) at 1uM” value was found to be 9.27%.
To `Cc1c(NC(=O)c2ccccc2N(C)S(=O)(=O)c2ccccc2)c(=O)n(-c2ccccc2)n1C` belongs -7.68%.
In the case of `CC(=O)N1CCC(=NNS(=O)(=O)c2ccc(C)c([N+](=O)[O-])c2)CC1` it was 10.6%.
To `O=C(NCCNC(=O)c1ccccn1)c1ccc(Cl)cc1` belongs 10.9%.
On to `Nn1c(Cc2ccccc2F)nnc1SCn1nnc2ccccc2c1=O`, for which the “hERG current change (%, negative = inhibition) at 1uM” value was 12.3%.
Take `CC(=O)Oc1c(C(=O)c2nnc(C)o2)c(=O)n(Cc2ccccc2)c2ccccc12`: the “hERG current change (%, negative = inhibition) at 1uM” value is 1.49%.
In the case of `O=c1c2ccccc2c(C=Nc2cccc(S(=O)(=O)NC3=NCCCCC3)c2)c(O)n1Cc1ccccc1` it was 3.66%; in that of `O=C(c1cc2ccccc2c(=O)o1)N1CCc2ccccc2C1`, 5.39%; in that of `CCCNC(=O)CN1C(=O)COc2ccc(S(=O)(=O)N3CCCCCC3)cc21`, 14.6%.
In the case of `O=Cc1cn(CC(=O)Nc2ccccc2)c2ccccc12` it was 6.4%; in that of `COc1cc(NC(=S)NCc2cccnc2)cc(OC)c1OC`, 20.9%.
`Cc1cc(Cl)ccc1OCCCC(=O)N1CCN(C)CC1`: the “hERG current change (%, negative = inhibition) at 1uM” value is recorded as 0.322%.
To `COc1cccc(NC(=O)CSc2nnc(NC(=O)C3CC3)s2)c1` belongs 13.8%; to `COc1ccc(NC(=O)CSc2cc(C)nc3c(-c4ccccc4)cnn23)cc1`, 11.8%.
Regarding `O=C(COc1ccccc1-c1ccccc1)Nc1ccc(S(=O)(=O)NCc2ccco2)cc1`, the “hERG current change (%, negative = inhibition) at 1uM” value was 9.14%.
To `CCOC(=O)c1ccc(NC(=O)CSc2nnc(C3CCCCC3)n2C)cc1` belongs 11.9%.
In the case of `Cc1cc(NC(=O)CN2CCC(n3nnc4cc(C(F)(F)F)ccc43)CC2)no1` it was -17.6%; in that of `Cc1ccc2c(c1)C(c1ccc(F)cc1)N(C(=O)C1CC1)CC(=O)N2` (centres unmarked), 8.88%.
In the case of `CCC(=O)NC(=S)Nc1cccc(NC(=O)c2ccco2)c1` it was 16.9%.
For the compound `O=C(Nc1cccc(-c2nnc(-c3ccco3)o2)c1)C(c1ccccc1)c1ccccc1`, the “hERG current change (%, negative = inhibition) at 1uM” value is reported as 15.6%.
